Data taken from the supplement of paper PMC8728848.
This is one part of the list.

Assays:
Test in all cases: glycan array binding signal (z-score within array); higher = stronger binding
Conditions in all cases: glycan notation: IUPAC condensed, linker removed
Gal3S(b1-3)GlcNAc = target: Gal3S(b1-3)GlcNAc
Procedure, shortened: (§1)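 From the Consortium for Functional Glycomics database, 3228 arrays were curated, keeping only those whose protein sequence was available. Binding is given as a within-array Z-score averaged across arrays sharing a protein sequence and across linkers. Negative Z-scores can be read as non-binding.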

[1] = target: Gal3S(b1-3)[Fuc(a1-4)]GlcNAc
Procedure, shortened: as §1

Gal3S(b1-4)Glc = target: Gal3S(b1-4)Glc
Procedure, shortened: as §1

Gal3S(b1-4)Glc6S = target: Gal3S(b1-4)Glc6S
Procedure, shortened: as §1

Gal3S(b1-4)GlcNAc = target: Gal3S(b1-4)GlcNAc
Procedure, shortened: as §1

Gal3S(b1-4)GlcNAc6S = target: Gal3S(b1-4)GlcNAc6S
Procedure, shortened: as §1

[2] = target: Gal3S(b1-4)[Fuc(a1-3)]Glc
Procedure, shortened: as §1

Gal3S4S(b1-4)GlcNAc = target: Gal3S4S(b1-4)GlcNAc
Procedure, shortened: as §1

Gal3S6S(b1-4)GlcNAc = target: Gal3S6S(b1-4)GlcNAc
Procedure, shortened: as §1

Gal3S6S(b1-4)GlcNAc6S = target: Gal3S6S(b1-4)GlcNAc6S
Procedure, shortened: as §1

Gal4S(b1-4)GlcNAc = target: Gal4S(b1-4)GlcNAc
Procedure, shortened: as §1

Gal4S6S(b1-4)GlcNAc = target: Gal4S6S(b1-4)GlcNAc
Procedure, shortened: as §1

Gal6S(b1-4)Glc = target: Gal6S(b1-4)Glc
Procedure, shortened: as §1

Gal6S(b1-4)Glc6S = target: Gal6S(b1-4)Glc6S
Procedure, shortened: as §1

Gal6S(b1-4)GlcNAc = target: Gal6S(b1-4)GlcNAc
Procedure, shortened: as §1

Gal6S(b1-4)GlcNAc6S = target: Gal6S(b1-4)GlcNAc6S
Procedure, shortened: as §1

GalNAc(a1-3)Gal = target: GalNAc(a1-3)Gal
Procedure, shortened: as §1

GalNAc(a1-3)GalNAc = target: GalNAc(a1-3)GalNAc
Procedure, shortened: as §1

GalNAc(b1-3)Gal = target: GalNAc(b1-3)Gal
Procedure, shortened: as §1

[3] = target: GalNAc(b1-3)Gal(a1-4)Gal(b1-4)GlcNAc
Procedure, shortened: as §1

GalNAc(b1-3)GalNAc = target: GalNAc(b1-3)GalNAc
Procedure, shortened: as §1

GalNAc(b1-4)GlcNAc = target: GalNAc(b1-4)GlcNAc
Procedure, shortened: as §1

Glc(a1-4)Glc = target: Glc(a1-4)Glc
Procedure, shortened: as §1

Glc(a1-6)Glc(a1-6)Glc = target: Glc(a1-6)Glc(a1-6)Glc
Procedure, shortened: as §1

Glc(b1-4)Glc = target: Glc(b1-4)Glc
Procedure, shortened: as §1

Glc(b1-6)Glc = target: Glc(b1-6)Glc
Procedure, shortened: as §1

GlcA(b1-3)Gal = target: GlcA(b1-3)Gal
Procedure, shortened: as §1

GlcA(b1-3)GlcNAc = target: GlcA(b1-3)GlcNAc
Procedure, shortened: as §1

GlcA(b1-6)Gal = target: GlcA(b1-6)Gal
Procedure, shortened: as §1

[4] = target: GlcNAc(a1-3)Gal(b1-4)GlcNAc
Procedure, shortened: as §1

[5] = target: GlcNAc(a1-6)Gal(b1-4)GlcNAc
Procedure, shortened: as §1

[6] = target: GlcNAc(b1-2)Gal(b1-3)GalNAc
Procedure, shortened: as §1

[7] = target: GlcNAc(b1-2)Man(a1-3)[GlcNAc(b1-2)Man(a1-6)]Man(b1-4)GlcNAc(b1-4)GlcNAc
Procedure, shortened: as §1

GlcNAc(b1-3)Gal = target: GlcNAc(b1-3)Gal
Procedure, shortened: as §1

[8] = target: GlcNAc(b1-3)Gal(b1-3)GalNAc
Procedure, shortened: as §1

GlcNAc(b1-3)Gal(b1-4)Glc = target: GlcNAc(b1-3)Gal(b1-4)Glc
Procedure, shortened: as §1

[9] = target: GlcNAc(b1-3)Gal(b1-4)GlcNAc
Procedure, shortened: as §1

[10] = target: GlcNAc(b1-3)Gal(b1-4)GlcNAc(b1-3)Gal(b1-4)GlcNAc
Procedure, shortened: as §1

GlcNAc(b1-3)GalNAc = target: GlcNAc(b1-3)GalNAc
Procedure, shortened: as §1

GlcNAc(b1-3)Man = target: GlcNAc(b1-3)Man
Procedure, shortened: as §1

[11] = target: GlcNAc(b1-3)[GlcNAc(b1-4)][GlcNAc(b1-6)]GlcNAc
Procedure, shortened: as §1

[12] = target: GlcNAc(b1-3)[GlcNAc(b1-6)]Gal(b1-4)GlcNAc
Procedure, shortened: as §1

[13] = target: GlcNAc(b1-3)[GlcNAc(b1-6)]GalNAc
Procedure, shortened: as §1

[14] = target: GlcNAc(b1-3)[GlcNAc(b1-6)]GlcNAc(b1-4)GlcNAc
Procedure, shortened: as §1

[15] = target: GlcNAc(b1-4)Gal(b1-4)GlcNAc
Procedure, shortened: as §1

B1: CD83 (Homo sapiens) (protein)
chain: MSRGLQLLLLSCAYSLAPATPEVKVACSEDVDLPCTAPWDPQVPYTVSWVKLLEGGEERMETPQEDHLRGQHYHQKGQNGSFDAPNERPYSLKIRNTTSCNSGTYRCTLQDPDGQRNLSGKVILRVTGCPAQRKEETFKKYRAETSEQKLISEEDLSRGSDDDDKAEPRGP
glycan array binding signal (z-score) (Gal3S(b1-3)GlcNAc): -0.457 | glycan array binding signal (z-score) [1]: -0.208 | glycan array binding signal (z-score) (Gal3S(b1-4)Glc): -0.364 | glycan array binding signal (z-score) (Gal3S(b1-4)Glc6S): -0.082 | glycan array binding signal (z-score) (Gal3S(b1-4)GlcNAc): -0.298 | glycan array binding signal (z-score) (Gal3S(b1-4)GlcNAc6S): -0.177 | glycan array binding signal (z-score) [2]: -0.141 | glycan array binding signal (z-score) (Gal3S4S(b1-4)GlcNAc): 0.804 | glycan array binding signal (z-score) (Gal3S6S(b1-4)GlcNAc): -0.416 | glycan array binding signal (z-score) (Gal3S6S(b1-4)GlcNAc6S): -0.129 | glycan array binding signal (z-score) (Gal4S(b1-4)GlcNAc): -0.406 | glycan array binding signal (z-score) (Gal4S6S(b1-4)GlcNAc): -0.047 | glycan array binding signal (z-score) (Gal6S(b1-4)Glc): -0.191 | glycan array binding signal (z-score) (Gal6S(b1-4)Glc6S): -0.135 | glycan array binding signal (z-score) (Gal6S(b1-4)GlcNAc): 0.098 | glycan array binding signal (z-score) (Gal6S(b1-4)GlcNAc6S): -0.075 | glycan array binding signal (z-score) (GalNAc(a1-3)Gal): -0.221 | glycan array binding signal (z-score) (GalNAc(a1-3)GalNAc): -0.329 | glycan array binding signal (z-score) (GalNAc(b1-3)Gal): -0.064 | glycan array binding signal (z-score) [3]: 0.235 | glycan array binding signal (z-score) (GalNAc(b1-3)GalNAc): -0.419 | glycan array binding signal (z-score) (GalNAc(b1-4)GlcNAc): -0.199 | glycan array binding signal (z-score) (Glc(a1-4)Glc): -0.39 | glycan array binding signal (z-score) (Glc(a1-6)Glc(a1-6)Glc): -0.051 | glycan array binding signal (z-score) (Glc(b1-4)Glc): -0.371 | glycan array binding signal (z-score) (Glc(b1-6)Glc): -0.153 | glycan array binding signal (z-score) (GlcA(b1-3)Gal): -0.045 | glycan array binding signal (z-score) (GlcA(b1-3)GlcNAc): 0.06 | glycan array binding signal (z-score) (GlcA(b1-6)Gal): -0.18 | glycan array binding signal (z-score) [4]: -0.289 | glycan array binding signal (z-score) [5]: -0.256 | glycan array binding signal (z-score) [6]: -0.273 | glycan array binding signal (z-score) [7]: -0.146 | glycan array binding signal (z-score) (GlcNAc(b1-3)Gal): -0.447 | glycan array binding signal (z-score) [8]: -0.182 | glycan array binding signal (z-score) (GlcNAc(b1-3)Gal(b1-4)Glc): -0.248 | glycan array binding signal (z-score) [9]: -0.162 | glycan array binding signal (z-score) [10]: -0.187 | glycan array binding signal (z-score) (GlcNAc(b1-3)GalNAc): -0.264 | glycan array binding signal (z-score) (GlcNAc(b1-3)Man): -0.188 | glycan array binding signal (z-score) [11]: 0.09 | glycan array binding signal (z-score) [12]: -0.131 | glycan array binding signal (z-score) [13]: -0.453 | glycan array binding signal (z-score) [14]: -0.62 | glycan array binding signal (z-score) [15]: 0.024
